Measured values from the RNAGym collection of RNA variant scans (doi:10.1073/pnas.2313332121).
Variants at the background level are over-represented here.

B1: TPR 5TU (parent)
chain: GGAUCUUCUCGAUCUAACAAAAAAGACAAAUCUGCCACAAAGCUUGAGAGCAUCUUCGGAUGCAGAGGCGGCAGCCUUCGGUGGCGCGAUAGCGCCAACGUUCUCAACUAUGACACGCAAAACGCGUGCUCCGUUGAAUGGAGUUUAUCAUG

Variants of: B1
Experiment: polymerase ribozyme fitness, log enrichment relative to wild type (log ratio); higher = more active; in vitro selection for triplet polymerase activity
Procedure, shortened: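 To select mutant libraries of each subunit of a heterodimeric triplet polymerase ribozyme, built by PCR and transcribed, each was annealed with a biotinylated primer, partner subunit and triplets, then incubated frozen at −7 °C. Extended constructs were gel-excised, captured on streptavidin beads and amplified by RT-PCR, in one round carried out in triplicate. Illumina sequencing of input and output libraries kept genotypes with ≥10 input reads and ≥1 read per output. Fitness is the base-2 logarithm of genotype enrichment relative to wild-type enrichment, from inverse-variance-weighted replicate averages.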

Going from U56G C85U A91U U135A to C57G C116A, the “polymerase ribozyme fitness (log ratio)” value rises from at most -4.2 to 1.35.

Going from U56G G68U G81A G84A A91C U135C to U56A U61C, the “polymerase ribozyme fitness (log ratio)” value rises from at most -4.2 to -3.45.

Going from U56A C96U A138U to C57A A60G C79G, the “polymerase ribozyme fitness (log ratio)” value rises from -4.06 to -3.6.

Going from U56A U61C G83U C116U G140U to U56A G58A C76U C123U C125G G143A, the “polymerase ribozyme fitness (log ratio)” value rises from at most -4.2 to 0.457.

Compared with U55G U127C, U56C G68U A89G C99U U146G is lower in “polymerase ribozyme fitness (log ratio)” value: -1.36 for the first, at most -4.2 for the second.

C57A U78G A97G G117A A122G and C57G C85A A97U A110G A113U G117A A138C G140C cannot be ordered by “polymerase ribozyme fitness (log ratio)” value: at most -4.2 for the first, at most -4.2 for the second.

Going from U56A G84A U127G to U55G C57A C69U U109G C116A, the “polymerase ribozyme fitness (log ratio)” value rises from -3.06 to -0.0851.

Going from U56A G70A C85U A97G G133C to U56A C87G G94C U104C G117U A119U U134C, the “polymerase ribozyme fitness (log ratio)” value rises from at most -4.2 to -3.94.

First: U55G A97G
Second: U56A C87A C103G U134G
The “polymerase ribozyme fitness (log ratio)” value of the first is higher: 0.0201 for the first, at most -4.2 for the second.

U56A C79A G84A U102A G128U and U56A A91U C125U C132U G140A U148A cannot be ordered by “polymerase ribozyme fitness (log ratio)” value: at most -4.2 for the first, at most -4.2 for the second.

First: U56A U78A U82C G94C G117C U134G U151C
Second: C57G C123U U145A
The “polymerase ribozyme fitness (log ratio)” value of the first is lower: at most -4.2 for the first, -0.237 for the second.

U56C G68U A121G U148A and U56G C79U G83A C87A G92U A106G cannot be ordered by “polymerase ribozyme fitness (log ratio)” value: at most -4.2 for the first, at most -4.2 for the second.

Going from C57A A89G C95U A119U A120U C125U to U56A A107C C108U U130A, the “polymerase ribozyme fitness (log ratio)” value falls from -1.54 to at most -4.2.

Compared with U56G G70U C85U U151A, C57A G65A G84U A120G is higher in “polymerase ribozyme fitness (log ratio)” value: at most -4.2 for the first, -3.08 for the second.

U56A G83C C87U A89C C108U U144C and U56G G59A U61A U148G cannot be ordered by “polymerase ribozyme fitness (log ratio)” value: at most -4.2 for the first, at most -4.2 for the second.

C57A G84U A89U G92U C118U U151A and U56A C57U G70A G92U C103G cannot be ordered by “polymerase ribozyme fitness (log ratio)” value: at most -4.2 for the first, at most -4.2 for the second.

U56G U61A C76U C79U C85G G100C C108A and U55G A60U G83C A137U G141U cannot be ordered by “polymerase ribozyme fitness (log ratio)” value: at most -4.2 for the first, at most -4.2 for the second.

First: U55G U82G C85A A97C U104C G136U
Second: C57G C87U C108A A110U C123A
The “polymerase ribozyme fitness (log ratio)” value of the first is higher: -3.65 for the first, at most -4.2 for the second.

U56A G88A A106U G128A and U56G C76A U77C C93G C105A U109G cannot be ordered by “polymerase ribozyme fitness (log ratio)” value: at most -4.2 for the first, at most -4.2 for the second.

Compared with U55G A73U, U55G U134A U139A is lower in “polymerase ribozyme fitness (log ratio)” value: -2.35 for the first, at most -4.2 for the second.

First: C57A G80C C95U C116U
Second: U56A C125U A142C
The “polymerase ribozyme fitness (log ratio)” value of the first is lower: at most -4.2 for the first, -3.74 for the second.

Going from C57G G58A A60G A137U to C57A C85G, the “polymerase ribozyme fitness (log ratio)” value rises from -4.15 to -1.75.

U56A U77G C123G and U56A G59A C105G A110G A150C cannot be ordered by “polymerase ribozyme fitness (log ratio)” value: at most -4.2 for the first, at most -4.2 for the second.

C57A G62U G92A C103U C129A and U55G C93G U127A cannot be ordered by “polymerase ribozyme fitness (log ratio)” value: at most -4.2 for the first, at most -4.2 for the second.

First: U55G G84U
Second: U56C G88U G92A C99U G126U
The “polymerase ribozyme fitness (log ratio)” value of the first is higher: -0.827 for the first, at most -4.2 for the second.

U56A C57U U82A G84A G92U A106C G143C and U56A C87G U101C A147C cannot be ordered by “polymerase ribozyme fitness (log ratio)” value: at most -4.2 for the first, at most -4.2 for the second.

First: U56A G81C A120C G141A
Second: U55G C57G U101G
The “polymerase ribozyme fitness (log ratio)” value of the first is higher: 0.526 for the first, 0.189 for the second.

U56A G84A G143C G152U and U56A A66C C72U G92A C93U C95A C116A cannot be ordered by “polymerase ribozyme fitness (log ratio)” value: at most -4.2 for the first, at most -4.2 for the second.

First: C57G C95U
Second: U55G A60G C79U A119C
The “polymerase ribozyme fitness (log ratio)” value of the first is higher: -1.18 for the first, -2.12 for the second.

C57A G70U G80A G83C C87U C108A and C57A G83U U90A A147C cannot be ordered by “polymerase ribozyme fitness (log ratio)” value: at most -4.2 for the first, at most -4.2 for the second.

Compared with C57G G84U U109G G136U, U56A C93A A98U A107G C129U is lower in “polymerase ribozyme fitness (log ratio)” value: -3.84 for the first, at most -4.2 for the second.

Going from C57A A66G G80A C103G U139C U151G to U55G C87A G141C, the “polymerase ribozyme fitness (log ratio)” value rises from at most -4.2 to -3.74.

Compared with U56C C96U, U56A G71A C96U U102C C116U C129A U134G is lower in “polymerase ribozyme fitness (log ratio)” value: -0.496 for the first, at most -4.2 for the second.

First: U56A C87A A89U C96U G133U
Second: U56A A97U
The “polymerase ribozyme fitness (log ratio)” value of the first is lower: at most -4.2 for the first, -1.47 for the second.

U55G U61A G84U C114U A150U and C57G A60U G68A A98U U111A A119U G140A cannot be ordered by “polymerase ribozyme fitness (log ratio)” value: at most -4.2 for the first, at most -4.2 for the second.

Going from C57A C85U A106U C125G G136U U146G to U56G A60U G84A G117C U127A A147U, the “polymerase ribozyme fitness (log ratio)” value falls from -3.77 to at most -4.2.

U55G A60C C75A G80C and U56G C69A C85G C103G A150C cannot be ordered by “polymerase ribozyme fitness (log ratio)” value: at most -4.2 for the first, at most -4.2 for the second.

First: C57G C85A A120G G136A U139A
Second: C57G A89U A98U
The “polymerase ribozyme fitness (log ratio)” value of the first is lower: at most -4.2 for the first, -1.18 for the second.

Going from U56A G92U U102A U134C to U56G C76U A91G A122U C149G, the “polymerase ribozyme fitness (log ratio)” value falls from -1.59 to at most -4.2.

C57G G68A C72G A91U C118A G133C A150G and U55G G88C G128U cannot be ordered by “polymerase ribozyme fitness (log ratio)” value: at most -4.2 for the first, at most -4.2 for the second.

First: C57G G84A C103U A110G
Second: U55G G68U G133C A138G
The “polymerase ribozyme fitness (log ratio)” value of the first is higher: -3.52 for the first, at most -4.2 for the second.

First: U56A G58A G88C
Second: U56G G84A G100U C131A G133A G136C
The “polymerase ribozyme fitness (log ratio)” value of the first is higher: -3.84 for the first, at most -4.2 for the second.
